# Out of some 48,000 compounds screened, about 450 (0.94%) were called active. Roughly 19% stayed inconclusive and do not appear here. The call rests on the fitted dose curve; in most records, active means well fitted inhibition curve with a large enough effect; inconclusive means small, poorly fitted or top-dose-only effect; inactive means no such curve, though single readings can be large or run the other way. Some of the results follow.
# Assay: Primary qHTS for Identification of Small Molecule Inhibitors of Huntingtin Promoter Activity; further: nearly all actives have a fitted effect of over 50% in size
# Conditions: HEK293 HTT promoter firefly luciferase reporter (activity 0% = vehicle and -100% = no light), 24 h; series mostly up to 57.5 µM; activity change, negative = inhibition: at the top concentration
# Method in brief: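 Luminescence was read after Dual-Glo reagent and a 10 min room-temperature incubation. Values were normalized to vehicle (0% activity) and zero RLU (-100% activity). Reporter HEK293 cells had been exposed to compounds (up to 57.5 uM final) for 24 h.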
row,SMILES,"activity change, negative = inhibition"
1,CCc1ccc(-n2c(=O)c3sc4ccccc4c3n(CC(=O)N3CCCC3)c2=O)cc1,inactive: -9.81%
2,O=C(CSc1nc2ccsc2c(=O)n1Cc1ccccc1Cl)NCc1ccc(F)cc1,inactive: -24.9%
3,CCc1ccc(NC(=O)CCCc2nnc3n(CC(C)C)c(=O)c4sccc4n23)cc1,inactive: -25.9%
4,O=C(Nc1c2c(nn1-c1ccc(Cl)cc1)CS(=O)(=O)C2)c1cccc(F)c1,inactive: -24.1%
5,COC(=O)c1ccc(C2c3c(-c4ccccc4O)n[nH]c3C(=O)N2Cc2ccncc2)cc1 (stereo not drawn),inactive: -8.39%
6,CC(C)c1nn2c(=O)cc(COC(=O)c3ccccc3NC(=O)COc3ccccc3)nc2s1,inactive: -10.7%
7,Cc1nnc(NC(=O)CSc2nccn2Cc2ccc(F)cc2)s1,inactive: -11.7%
8,CC(=O)Nc1ccc(S(=O)(=O)NCCc2cn3ccsc3n2)cc1,inactive: -20.8%
9,CCC(=O)N1CCc2cc(OC)c(OC)cc2C1COc1ccccc1OC (stereo not drawn),inactive: -14.6%
10,Cc1nnc(NC(=O)c2nc(SCc3ccccc3F)ncc2Cl)s1,inactive: -11.2%
11,O=C(NCc1ccccc1)C(=O)Nc1ccc2nc3n(c(=O)c2c1)CCCCC3,inactive: -24.1%
12,COc1nc(C)cnc1NS(=O)(=O)c1cccnc1-c1ccc(-c2nnco2)cc1,inactive: 8.72%
13,CCc1cc(C(=O)NCc2ccccc2)no1,inactive: 42.1%
14,Cc1ccc(CN2COc3ccc4c(-c5ccccc5)cc(=O)oc4c3C2)cc1,inactive: -12.4%
15,NC(=O)c1ncn([C@@H]2O[C@H](CO)[C@@H](O)[C@@H]2O)c1O,inactive: -7.02%
16,Cc1cc(C)nc(-n2nc(C)c3c2N(C)C(=O)CC3c2ccc(Cl)cc2)n1 (stereo not drawn),inactive: -11%
17,Cc1c(C(=O)Nc2cccc(Cl)c2)oc2ccc(S(=O)(=O)N3CCCCCC3)cc12,inactive: -24.9%
18,Cc1cc(-c2ccc(S(=O)(=O)Nc3ccccc3F)s2)on1,inactive: -35.4%
19,O=C(CN1C(=O)COc2ccc(S(=O)(=O)NC3CCCC3)cc21)Nc1ccc(Cl)cc1,inactive: -0.0219%
20,CCOC(=O)c1[nH]c(C)c(C(=O)NC(CC)Cc2ccccc2)c1C (stereo not drawn),inactive: -24.5%
21,O=C(Nc1cccc(-c2cn3cccnc3n2)c1)c1cc(Br)ccc1Cl,inactive: -13.1%
22,Cc1ccc(C)c(NC(=O)Cn2c(=O)n(CC3CCCO3)c(=O)c3ccccc32)c1 (stereo not drawn),inactive: -10.6%
23,CCN1CCN(c2ncnc3c2cnn3-c2ccc(C)c(C)c2)CC1,inactive: -8.96%
24,CC(=O)Nc1ccc(NC(=O)CSc2nc3ccccc3nc2N2CCCCC2)cc1,inactive: -6.74%

row,SMILES,"activity change, negative = inhibition"
1,Cn1c(-n2cccc2)c(-c2c(-c3ccccc3)[nH]c3c2c(=O)[nH]c(=O)n3C)c(=O)[nH]c1=O,inactive: -7.94%
2,Cc1ccc2c(c1)N(CC(=O)NCCc1ccc(Cl)cc1)C(=O)c1cccnc1O2,inactive: -23%
3,COc1cccc(CNC(=O)c2ccc3c(c2)nc2n3CCOC2)c1,inactive: 0.687%
4,Cc1ccc(-c2nnn3c2nc(NCC(C)c2ccccc2)c2ccccc23)cc1 (stereo not drawn),inactive: 32.4%
5,Cc1oc(=O)oc1CN1CCN(c2cc3c(cc2F)c(=O)c(C(=O)O)c2n3C(C)S2)CC1 (stereo not drawn),inactive
6,CCN(Cc1ccccc1)C(=O)CN1C(=O)COc2ccc(S(=O)(=O)NC3CCCC3)cc21,inactive: -11.7%
7,CCOc1ccc(CNC(=O)c2ccc(CS(=O)Cc3ccc(Cl)cc3)o2)cc1 (stereo not drawn),inactive: -4.44%
8,CCc1ccc2oc(C(=O)Nc3sc4c(c3C(=O)NC)CCCC4)cc(=O)c2c1,inactive: -1.3%
9,CCOc1ccc(C(=O)Nc2cccc(OCc3cc(=O)n4cc(C)sc4n3)c2)cc1,inactive: 9.89%
10,O=C(Nc1ccc(Cl)cc1F)c1cc(S(=O)(=O)NCc2ccc3c(c2)OCO3)ccc1F,inactive: -19%
11,CN(C)CCn1c2c(c(SCC(=O)Nc3ccc(F)cc3F)nc1=O)CCC2,inactive: -15.2%
12,O=C(NCCc1ccccc1)c1ccc(CSc2nc3ccncc3n2Cc2ccc(F)cc2)cc1,inactive: -26.3%
13,CCCCn1cc(S(=O)(=O)c2cccc(C)c2)c(=O)c2cc(F)c(N3CCOCC3)cc21,inactive: -11.6%
14,Cc1ccccc1OC(=O)CSc1nnc(-c2cccs2)o1,inactive: -2.28%
15,CCOC(=O)c1c(S(=O)(=O)N2CCCC(C(=O)N3CCN(c4ccccc4)CC3)C2)c(C)n(C)c1C (stereo not drawn),inactive: -19.8%
16,COc1ccc(-c2nc3ccccc3o2)cc1NC(=O)COc1ccc(C(C)(C)C)cc1,inactive: 9.3%
17,O=[N+]([O-])c1ccc(C(c2sc3nc(-c4ccco4)nn3c2O)N2CCN(c3cccc(Cl)c3)CC2)cc1 (stereo not drawn),inactive: -17%
18,CCOC(=O)c1cc2c(=O)n3ccccc3nc2n(CC2CCCO2)c1=NC(=O)c1ccc(C)cc1 (stereo not drawn),inactive: -18.7%
19,CCc1cccc(NC(=O)Cn2nc(-c3cc(C)ccc3C)ccc2=O)c1,inactive: -14%
20,N=C(N=C(N)N)N1CCOCC1,inactive: -1.06%
21,CC(Oc1ccccc1Cl)C(=O)N1CCN(CCc2ccccn2)CC1 (stereo not drawn),inactive: -12.8%
22,O=C(CN1C(=O)COc2ccc(S(=O)(=O)N3CCOCC3)cc21)N1CCN(c2ccc(F)cc2)CC1,inactive: -6.98%
23,CC(Sc1nc(=O)cc(N)n1CCc1ccccc1)C(=O)Nc1ccccc1C#N (stereo not drawn),inactive: 16.1%
24,COc1ccc(OC)c(NC(=O)CN2C(=O)CCc3cc(S(=O)(=O)N4CCCCC4)ccc32)c1,inactive: -22.9%

row,SMILES,"activity change, negative = inhibition"
1,O=C(NC1CCCCC1)c1ccc2c(c1)N(Cc1ccc(Cl)cc1)C(=O)c1ccccc1S2(=O)=O,inactive: -10.4%
2,CC(=O)N1c2c(cc(Br)cc2S(=O)(=O)N2CCN(c3cccc(Cl)c3)CC2)CC1C (stereo not drawn),inactive: -12.8%
3,CC(=O)c1cccc(NS(=O)(=O)c2ccc3c(c2)NC(=O)CC(=O)N3)c1,inactive: -12.9%
4,Cc1ccc(Cl)cc1NC(=O)Cn1c(=O)n(Cc2ccc(C(=O)NCc3ccc4c(c3)OCO4)cc2)c(=O)c2ccccc21,inactive: -12.4%
5,CCN(Cc1ccccc1)C(=O)c1cc2c(s1)-c1c(C)cccc1OC2,inactive: -2.42%
6,CCN1CCN(c2c(S(=O)(=O)c3ccc(C)c(C)c3)cnc3ccc(F)cc23)CC1,inactive: -18.7%
7,O=c1c2cnn(-c3ccc(Cl)cc3)c2ncn1Cc1cccc(C(F)(F)F)c1,inactive: -7.22%
8,COc1ccc(NC(=O)CSc2cc(-c3ccccc3)nc(C)n2)cc1,inactive: -18.6%
9,CCOc1ccc(-c2csc(/C(C#N)=C/c3ccc(Br)cc3)n2)cc1,inactive: -2.37%
10,CCC(=O)Nc1ccc2nc(SCCOc3ccc(C)cc3)sc2c1,inactive: -5.62%
11,Cc1nc([N+](=O)[O-])cn1-c1ccc([N+](=O)[O-])cc1,inactive: -2.32%
12,CCS(=O)(=O)c1ncc(N(Cc2ccc(F)cc2)Cc2ccco2)c(C(=O)Nc2cc(C)ccc2C)n1,inactive: -28.7%
13,CCOC(=O)C1CCN(C(=O)CN2c3ccc(CC)cc3-c3ccccc3S2(=O)=O)CC1,inactive: -10.2%
14,CCCN(CCC)C(=O)Cn1c(=O)n(-c2ccc(OC)cc2)c(=O)c2ccc(C(=O)NCc3ccc(C)cc3)cc21,inactive: -11.9%
15,CCCn1c(NCc2ccc(N(CC)CC)cc2)nc2ccccc21,inactive: -20.8%
16,CN1CCN(c2nc3c(S(=O)(=O)c4ccccc4)nnn3c3ccsc23)CC1,inactive: -4%
17,Cc1ccc(-n2c(SCC(=O)Nc3cccc(C)c3)nc3c(oc4ccccc43)c2=O)cc1,inactive: -7.26%
18,CO[C@@H]1[C@@H](O[C@@H]2O[C@H](C)[C@@H](O[C@H]3C[C@@](C)(O)[C@@H](O)[C@H](C)O3)[C@H](N(C)C)[C@H]2O)[C@@H](CC=O)C[C@@H](C)[C@@H](O[C@@H]2CC[C@H](N(C)C)[C@@H](C)O2)/C=C/C=C/C[C@@H](C)OC(=O)C[C@H]1OC(C)=O,inactive: -2.48%
19,CCOC(=O)C1CCCN(C(=O)c2ccc(-n3ccc4ccccc43)s2)C1 (stereo not drawn),inactive: -22.1%
20,COc1cccc(-c2ccc3c(N)c(C(=O)Nc4cc(F)ccc4F)sc3n2)c1,inactive: 24.5%
21,Cc1cc(OI)c(C(C)C)cc1-c1cc(C(C)C)c(OI)cc1C,inactive: 10.7%
22,Cc1ccc(NC(=O)Cn2cc(S(=O)(=O)N3CCC(C)CC3)c3ccccc3c2=O)c(Br)c1,inactive: -26.6%
23,CCCCN(CCCNC(=O)c1c(C)oc2nc[nH]c(=O)c12)Cc1ccccc1,inactive: -15.2%
24,CNC(=O)c1c(NC(=O)c2ccc(S(=O)(=O)N3CCCCC3C)cc2)sc2c1CCC2 (stereo not drawn),inactive: -16%

row,SMILES,"activity change, negative = inhibition"
1,Cc1ccc(Nc2c(-c3cccnc3)nc3ccc(Br)cn23)cc1,inactive: 14.3%
2,COc1ccc(-c2nnc(SCC(=O)N(C)Cc3ccccc3)o2)cc1OC,inactive: -0.563%
3,COc1cccc(N2CCN(C(=O)CN3C(=O)COc4ccc(S(=O)(=O)N5CCC(C)CC5)cc43)CC2)c1,inactive: -12.6%
4,COc1ccc(C)cc1-n1nnc(C(=O)Nc2cccc(SC)c2)c1C,inactive: -28.4%
5,COc1ccc(C(=O)NCC(c2cccnc2)N2CCc3ccccc32)cc1OC (stereo not drawn),inactive: -26.4%
6,Cc1cccc(CNC(=O)c2ccc(NC(=O)N3CCSc4ccccc43)cc2)c1,inactive: -19.8%
7,CC1CCc2c(sc(NC(=O)COc3ccccc3C(C)(C)C)c2C#N)C1 (stereo not drawn),inactive: -8.17%
8,Cc1ccc(NC(=O)Cn2c(SCc3ccc(F)cc3)nc3cccnc32)cc1F,inactive: -13.8%
9,O=C(NCCCN1CCN(c2ccccc2F)CC1)c1cc2c(s1)-c1ccccc1OC2,inactive: -26.8%
10,O=C(O)c1ccc(NC(=O)c2cc3ccccc3o2)cc1,inactive: 40.6%
11,CCc1ccc(-n2nc(C)c3c(C)cc(=O)n(CC(=O)Nc4ccccc4C(=O)OC)c32)cc1,inactive: -3.49%
12,CCCCOc1ccc(C(=O)N/C(=C\c2ccc(Br)cc2)C(=O)NC2CCCCC2)cc1,inactive: 5.93%
13,CSCCC(NS(=O)(=O)c1ccc2c(c1)oc(=O)n2C)C(=O)N1CCN(c2ccc(F)cc2)CC1 (stereo not drawn),inactive: 2.9%
14,Cc1cccc(-n2ccnc2SCC(=O)Nc2ccc3c(c2)OCO3)c1,inactive: -19.6%
15,O=C(Nc1cccc(F)c1)C1CCN(c2nc3ccccc3[nH]2)CC1,inactive: 5.11%
16,CCc1cccc(NC(=O)CCS(=O)(=O)c2ccc3nc(C)sc3c2)c1,inactive: -11.2%
17,COc1ccc(CNc2ncnc3c2cnn3-c2ccc(C)c(C)c2)cc1,inactive: 33.3%
18,COc1ccc(CN2C(=O)c3oc4ccccc4c(=O)c3C2c2ccc(O)c(OC)c2)cc1 (stereo not drawn),inactive: 2.67%
19,CCCCSCCCNC(=O)C1CCC(CNS(=O)(=O)c2c(C)cc(C)cc2C)CC1 (stereo not drawn),inactive: -4.5%
20,CCOc1ccc(CNC(=O)c2ccc3c(c2)nc2n3CCC(C)C2)cc1OC (stereo not drawn),inactive: -19.7%
21,COc1cccc(C(=O)NC2CC(=O)N(c3ccc4c(c3)OCCO4)C2)c1OC (stereo not drawn),inactive: -1.09%

# Source: PubChem BioAssay AID1508623 (National Center for Advancing Translational Sciences (NCATS), 2021)
